Source: PubChem BioAssay AID488969 (Vanderbilt High Throughput Screening Facility, 2010)
Whole data set: some 110,000 compounds, median “z-score” near -0.1, cut for the highest 2% near 2. This is one part of the list. Activity calls are given as the source filed them.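 Rule for the calls: active = z-score in the third read window above 3 or below -3; inactive = the rest.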

What follows are compounds tested against Metabotropic glutamate receptor 8 (Rattus norvegicus) (UniProt P70579) (assay: mGluR8 Gi/Go-coupled signaling modulation – cell-based, rat, thallium flux, HTS, primary screen (AID 488969)). Settings: HEK293 rat mGluR8, GIRK (G protein-gated inwardly rectifying potassium channel) thallium flux, FluoZin2; at 10 µM; stronger effect = higher value; submaximal glutamate (EC20) added with thallium.
Sequence of UniProt P70579 (P70579 whole entry, looked up): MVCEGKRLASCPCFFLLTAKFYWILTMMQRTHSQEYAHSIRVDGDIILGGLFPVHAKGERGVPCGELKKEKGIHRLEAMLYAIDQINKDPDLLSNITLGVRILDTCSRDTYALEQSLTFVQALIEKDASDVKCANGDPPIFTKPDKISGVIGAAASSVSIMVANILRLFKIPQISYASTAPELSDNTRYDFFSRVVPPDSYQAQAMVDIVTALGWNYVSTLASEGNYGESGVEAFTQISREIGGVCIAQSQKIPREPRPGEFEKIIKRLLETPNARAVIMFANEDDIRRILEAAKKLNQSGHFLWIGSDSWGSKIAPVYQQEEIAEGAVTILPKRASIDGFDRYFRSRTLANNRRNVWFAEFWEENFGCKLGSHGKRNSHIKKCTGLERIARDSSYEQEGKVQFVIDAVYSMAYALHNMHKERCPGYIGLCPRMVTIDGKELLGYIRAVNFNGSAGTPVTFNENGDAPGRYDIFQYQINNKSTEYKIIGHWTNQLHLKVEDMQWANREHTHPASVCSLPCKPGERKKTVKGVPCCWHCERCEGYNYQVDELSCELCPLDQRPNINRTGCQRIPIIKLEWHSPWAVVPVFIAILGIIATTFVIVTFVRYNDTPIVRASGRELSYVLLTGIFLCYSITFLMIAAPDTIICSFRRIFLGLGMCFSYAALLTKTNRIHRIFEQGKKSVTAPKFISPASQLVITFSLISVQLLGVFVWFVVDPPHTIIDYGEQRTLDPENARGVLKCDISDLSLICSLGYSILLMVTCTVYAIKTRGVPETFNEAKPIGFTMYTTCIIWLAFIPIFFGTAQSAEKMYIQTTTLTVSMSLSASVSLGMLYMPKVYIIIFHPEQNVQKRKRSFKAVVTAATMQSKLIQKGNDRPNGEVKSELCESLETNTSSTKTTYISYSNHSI

Row | SMILES | z-score
1 | CCOC(=O)c1cc2c(=O)n3ccccc3nc2n(CCOC)c1=NC(=O)C(C)(C)C | -0.316
2 | Cc1ccccc1NC(=O)CSc1nc2c(c(-c3ccco3)c1C#N)CCCC2 | -0.266
3 | CCS(=O)(=O)N1Cc2ccccc2CC1C(=O)Nc1ccc(NC(C)=O)cc1 (configuration not stated) | 0.163
4 | CON1C(=O)C(=O)N(OC)C2CCCCCC21 (configuration not stated) | -0.169
5 | O=C(CSc1nnc(CNC(=O)c2ccccc2F)o1)NCC1CCCO1 (configuration not stated) | -0.0835
6 | Cn1c(NCCCN2CCOCC2)nc2c1c(=O)n(Cc1ccc(Cl)cc1)c(=O)n2C | 0.0177
7 | c1ccc2sc(Nc3nc4cc5c(cc4s3)OCO5)nc2c1 | 0.501
8 | O=C(NCCCN1CCCC1=O)c1ccc2c(c1)NC(=O)c1ccccc1S2 | -0.351
9 | CCOC(=O)c1c(CC(C)C)csc1NC(C)=O | 0.0593
10 | Cc1cc(O)ccc1Nc1nc2ccccc2nc1Nc1ccc(O)cc1C | -1.19
11 | CC1=C(C(=O)OCCOC(C)C)C(c2cc3c(cc2Br)OCO3)CC(=O)N1 (configuration not stated) | -0.122
12 | Nc1cccc(C2=Nc3cccc4cccc(c34)N2)c1 | -0.148
13 | COc1cc(OC)cc(C(=O)N2CCCc3ccccc32)c1 | -0.088
14 | O=C(O)C1C2C=CC(C2)C1C(=O)NCCC1=CCCCC1 (configuration not stated) | 0.367
15 | c1ccc(Nc2ccccn2)cc1 | 0.132
16 | CCN(CC)S(=O)(=O)c1cc(NC(=O)CSc2nnc(-c3cccs3)o2)ccc1C | -0.183
17 | Cn1cccc1Cc1nnc(SCC(=O)NCCc2ccccc2)n1-c1ccc(F)cc1 | -2.82
18 | COc1cc(CNc2ccc3[nH]c(=O)[nH]c3c2)ccc1OCC(=O)NC(C)(C)C | -0.964
19 | CCC(=O)c1cc2c(cc1NC(=O)c1ccccc1)OCCO2 | -0.258
20 | Cc1cccc(C(=O)c2ccccc2C(=O)O)c1O | 0.929
21 | CCN(CC)S(=O)(=O)c1ccc(OC)c(NC(=O)CSc2ccccc2)c1 | -0.541
22 | CCOC(=O)c1csc(NC(=O)CSc2nnnn2-c2ccc(OC)cc2)n1 | 0.0329
23 | Cc1nc(-c2ccccc2)c(-c2ccccc2)[nH]1 | 0.247

Row | SMILES | z-score
24 | Cc1nn(-c2cccc(Cl)c2)c2nc(-c3ccco3)cc(C(=O)O)c12 | -1.12
25 | Cc1ccc(CNC(=O)Cc2csc(Nc3nc(=S)[nH]c4ccccc34)n2)cc1 | active: 10.7
26 | O=C(c1ccc(F)cc1)c1c[nH]c(C(=O)NCc2ccco2)c1 | -0.337
27 | C=CCOc1ccc(Cl)cc1CNCCCN1CCOCC1 | -1.78
28 | CCOC(=O)c1c(NC(=O)CCl)sc(C(=O)N(CC)CC)c1C | -0.691
29 | COc1ccc(/C(O)=C2\C(=O)C(=O)N(CCN(C)C)C2c2cc(OC)c(OC)c(OC)c2)c(C)c1 (configuration not stated) | -1.04
30 | S=C(NCCN1CCOCC1)Nc1ccc(Cl)cc1 | -0.102
31 | CCn1c(SCC(=O)N/N=C/c2cc(OC)c(OC)c(OC)c2)nc2ccccc21 | -0.917
32 | COC(=O)C(Cc1ccccc1)NC(=O)C12CC3CC(CC(C3)C1)C2 (configuration not stated) | -0.512
33 | Cc1sc(N/N=C/c2ccco2)nc1-c1ccccc1 | -0.188
34 | O=C(COC(=O)c1cn(-c2ccccc2)nc1-c1ccccc1)c1cccc([N+](=O)[O-])c1 | -0.0786
35 | CCOC(=O)c1cc(C(C)=O)n2ccccc12 | -0.131
36 | O=C(NCc1ccco1)c1cnn2c(C(F)(F)F)cc(-c3ccco3)nc12 | 0.361
37 | Cc1cc(C)nc(NS(=O)(=O)c2ccc(N/C=C/C(=O)c3ccc(Cl)c(Cl)c3)cc2)n1 | 0.0997
38 | O=C(O)CCCC(=O)Nc1cccc(-c2nc3ccccc3[nH]2)c1 | -0.51
39 | CCN(Cc1ccccc1)C(=O)Cn1cnc2c1c(=O)n(C)c(=O)n2C | -0.0176
40 | Cc1c(C)n(CCC#N)c2ccccc12 | 0.668
41 | CCOC(=O)C(C)Oc1ccsc1C(=O)OC (configuration not stated) | 0.992
42 | COC(=O)c1cccc(NC(=O)Cc2nc(-c3ccccc3)sc2-c2ccc(C)cc2)c1 | -0.318
43 | CCCCN(CC)S(=O)(=O)c1ccc(C(=O)N=c2sc3cc(NC(C)=O)ccc3n2C)cc1 | -0.0806
44 | Nc1nnc(SCC(=O)Nc2ccc(S(=O)(=O)N3CCOCC3)cc2)s1 | 0.307
45 | O=C(Cc1cccs1)Nc1nnc(SCc2cccc3ccccc23)s1 | -0.104
46 | CCOC(=O)c1sc(NC(=O)c2ccccc2)cc1C | -0.333

Row | SMILES | z-score
47 | Cc1nn(CC(=O)Nc2ccccn2)c(C)c1[N+](=O)[O-] | 0.599
48 | CCN(CC)S(=O)(=O)c1ccc(C2CNC(=O)C2)cc1 (configuration not stated) | 0.261
49 | CCOCCc1nnc(NC(=O)c2cccs2)s1 | -0.0424
50 | CC1CCN(C(=S)NC(=O)c2ccccc2)CC1 | active: 4.42
51 | Cc1c(C(=O)Nc2ccccc2)oc2c1C(=O)CC(C)(C)C2 | -0.229
52 | O=C(CN(Cc1ccccc1)S(=O)(=O)c1ccc(Br)cc1)NCc1ccco1 | -0.557
53 | Fc1ccccc1CNC(=S)Nc1ccc(Cl)cc1 | 2.23
54 | CCOC(=O)C1=C(Nc2cccc(Cl)c2)OCC1=O | -0.814
55 | O=C1OC(N2CCN(C/C=C/c3ccccc3)CC2)c2ccccc21 (configuration not stated) | -0.0152
56 | CCc1ccccc1NC(=S)NCc1ccc2c(c1)OCO2 | -0.0875
57 | O=C(CN1NS(=O)(=O)c2ccccc2C1=O)Nc1ccccc1OC(F)F | 0.0178
58 | O=C(Cn1c(=O)[nH]c2ccsc2c1=O)NC1CCCCCC1 | active: 8.37
59 | CC(=O)c1cccc(NC(=S)NC(=O)CC(C)C)c1 | -0.138
60 | CCCSCCCNC(=O)CC1Oc2ccccc2NC1=O (configuration not stated) | -0.746
61 | C=CCn1c(=N)n(CC(=O)OCC)c2ccccc21 | 0.534
62 | CCOC(=O)N1CCC(N2CC34C=CC(O3)C(C(=O)Nc3ccc(F)cc3)C4C2=O)CC1 (configuration not stated) | 0.385
63 | Cc1ccc2c3c([nH]c2c1C)-c1nonc1CC3 | -0.0985
64 | Cc1cc(C)n(CCc2nc(-c3ccc(C(C)(C)C)cc3)cs2)n1 | -0.0594
65 | Cc1ccc(C(C)C)c(OCCNC(=S)Nc2cccc3ccccc23)c1 | -0.0377
66 | COC(=O)CN(C)C1CC(=O)N(c2ccc(Cl)cc2)C1=O (configuration not stated) | -0.379
67 | O=c1[nH]c2ccccc2n2c(-c3ccncc3)nnc12 | -0.154
68 | N#Cc1c(NCCN)nc(-c2ccco2)c2c1CCCC2 | 0.172
69 | S=C(c1ccccc1)N(c1ccccc1)c1ccccc1 | -0.231

Row | SMILES | z-score
70 | OCCNC(=S)NC1CCCCC1 | -0.295
71 | Cc1nn(Cc2ccc(C(=O)Nc3ccc(C(=O)OC(C)C)cc3)o2)c(C)c1Cl | -0.425
72 | Cc1cc(C)nc(SCC(=O)Nc2cc(C)on2)n1 | 0.0308
73 | COc1ccccc1NC(=O)Cc1noc(CSc2cccc[n+]2[O-])n1 | 0.154
74 | CN(C)CC#CCCCCCCC#CCN(C)C | -0.162
75 | O=C(O)c1cn(C2CC2)c2cc(N3CCOCC3)c(F)cc2c1=O | 0.473
76 | Cc1cc(NC(=O)Cc2cccs2)nn1CC(=O)NCc1ccco1 | -0.178
77 | O=C(COC(=O)c1ccccc1Nc1ccc(SC(F)F)cc1)NC1CC1 | -0.144
78 | CCCc1cc2c(=O)c(-c3ccc4c(c3)OCCO4)coc2cc1OS(C)(=O)=O | -0.0601
79 | CC(=O)c1ccc(N2CCN(C(=S)Nc3ccccc3F)CC2)cc1 | 1.44
80 | Fc1ccc(C(c2nnnn2C2CCCC2)N(Cc2ccco2)CC2CCCO2)cc1 (configuration not stated) | -0.775
81 | NC(=O)CSc1nnc(CCc2nc3ccccc3[nH]2)n1-c1ccccc1 | 0.0122
82 | Cc1ccc(C(=O)c2cc([N+](=O)[O-])ccc2N2CCOCC2)cc1 | -0.268
83 | COc1ccc(C(=O)NC(=O)COC(=O)c2ccc3ncsc3c2)cc1 | 0.16
84 | O=C(Nc1ccn(Cc2c(F)c(F)cc(F)c2F)n1)c1cccc(Cn2cc([N+](=O)[O-])cn2)c1 | -0.771
85 | CCC1C(=O)N=C(SCC(=O)Nc2ccccc2)NC1=O (configuration not stated) | 0.135
86 | CC1CCN(S(=O)(=O)c2ccc(S(=O)(=O)NCc3ccco3)cc2)CC1 | 0.368
87 | Cc1cc(C)nc(-n2nc(C)cc2NC(=O)CNC(C)c2ccccc2)n1 (configuration not stated) | 0.124
88 | CC1Cc2ccccc2N1C(=O)CN1CCC(n2nnc3cc(C(F)(F)F)ccc32)CC1 (configuration not stated) | -0.668
89 | CCc1ccc2[nH]c(=O)c(C3C(C#N)=C(N)Oc4c3ccc3cccnc43)cc2c1 (configuration not stated) | -0.379
90 | Cc1cc(C)nc(-n2nc(C)cc2NC(=O)CN2CCC(C)CC2)n1 | -0.761
91 | Cc1ccc(-c2nc(N)c3c(-c4ccc(C)cc4)nn(C(C)(C)C)c3n2)cc1 | 0.2
92 | CC1(C(=O)NC2CCCCCCC2)CCC(=O)N1Cc1cccs1 (configuration not stated) | -0.269

Row | SMILES | z-score
93 | CCC(=O)Nc1cccc(NC(=O)c2ccc(Br)cc2)c1 | -0.473
94 | Cc1c(C(=O)NC(=S)Nc2ccc3c4c(cccc24)CC3)cccc1[N+](=O)[O-] | -0.205
95 | Brc1ccc(C2Nc3cccc4cccc(c34)N2)s1 | 0.154
96 | Cc1nn(-c2ccccc2)c(C)c1NC(=O)COc1ccc(Cl)cc1Cl | -0.279
97 | CCCCn1c(SCC(=O)Nc2nnc(C)s2)nc2c1c(=O)n(C)c(=O)n2C | 0.257
98 | O=C(O)/C=C\C(=O)Nc1ccccc1C#Cc1ccccc1 | -0.373
99 | Cc1c(NS(=O)(=O)c2ccc(Br)s2)c(=O)n(-c2ccccc2)n1C | -0.25
100 | CC1(C)CCCN(C(=O)N2c3ccccc3Sc3ccccc32)C1 | -0.275
101 | COC(=O)c1ccccc1NC(=O)/C=C/C(=O)O | 0.196
102 | COc1cccc(CNC(=O)Nc2cccs2)c1 | 1.23
103 | CCCn1c(CCC(=O)Nc2ccccc2Cc2ccccc2)nc2cc(S(=O)(=O)N3CCOCC3)ccc21 | -0.371
104 | CNCCCc1[nH]nc(N)c1C#N | 0.279
105 | COc1ccc(S(=O)(=O)NCc2ccc3c(c2)OCO3)cc1C(=O)O | 0.0773
106 | CC(=O)Nc1cccc(NC(=O)COc2nncc3ccccc23)c1 | -0.259
107 | O=[N+]([O-])c1ccc(NC(=S)N2CCN(c3ccc(F)cc3)CC2)cc1 | -0.0841
108 | COC(=O)c1cc2ccsc2n1Cc1nc(-c2cccc(Cl)c2)oc1C | -0.229
109 | O=C(/C=C/c1ccccc1)NCCC1=CCCCC1 | -0.134
110 | CCOc1ccc2c(c1)C(C)=CC(C)(C)N2C(=O)Nc1ccccc1F | -0.0976
111 | CCOc1ccc(NC(=O)CN(C)CC(=O)Nc2ccccc2SC)cc1OCC | -0.61
112 | Cc1nnc(C)c2c(C)n(C(c3ccccc3)c3ccccc3)c(C)c12 | 0.0312
